The values below come from a collection of fitness landscapes (doi:10.1038/s41467-024-54723-y).

In all, about 18,000 sequences were measured (“TetR repression strength (sort-seq, GFP reporter)”: median about 0.23, highest 2% from about 0.68 on). This is one part of the list.

Chain of UniProt P04483 (P04483 whole entry): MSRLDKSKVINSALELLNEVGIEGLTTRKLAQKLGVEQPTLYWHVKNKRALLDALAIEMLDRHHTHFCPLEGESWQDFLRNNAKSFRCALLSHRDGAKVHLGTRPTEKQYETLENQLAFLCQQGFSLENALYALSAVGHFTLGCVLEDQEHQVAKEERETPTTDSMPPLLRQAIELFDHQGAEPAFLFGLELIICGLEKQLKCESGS

This experiment addresses TetR (class B, Tn10) (UniProt P04483). The experiment in a line: TetR repression strength (sort-seq, GFP reporter) (relative to tetO2 = 1); higher = stronger repression. The settings on record: E. coli. The gist of the method:
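Repression strength is the top bin index plus one minus the read-weighted mean bin, relative to the unaltered operator's value. A low-copy library in E. coli SIG10-MAX randomized eight operator positions between a constitutive promoter and sfGFP, with TetR expressed constitutively; cells grew 5 h at 37 °C in LB with 50 µg/mL chloramphenicol and 10^6 were FACS-sorted into 13 bins that were each Illumina-sequenced. Three independent transformations were averaged, keeping only members with ≥30 reads in all replicates and CV ≤0.5.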
As for TCCCGTTGAGTGTCCGAGA, the TetR repression strength came out at 0.224.

TCCCCACGAGTTGAAGAGA: the TetR repression strength was determined as 0.352.

TCCCGGCCAGTCAAAGAGA came in with a TetR repression strength of 0.406.

Regarding TCCCAAACAGTGGGAGAGA, the TetR repression strength is 0.209.

The sequence TCCCCGTAAGTGGTGGAGA registered a TetR repression strength of 0.0297.

With TCCCTAGCAGTGAGAGAGA, the TetR repression strength was 0.376.

Consider TCCCTCTTAGTGGAGGAGA, for which the TetR repression strength is 0.0194.

Take TCCCGGCGAGTCTGGGAGA: the TetR repression strength was 0.192.

In turn, TCCCTTTGAGTTTTTGAGA returned a TetR repression strength of 0.506.

TCCCTCCTAGTGTGCGAGA returned a TetR repression strength of 0.101.

In turn, TCCCAGTTAGTGTGTGAGA returned a TetR repression strength of 0.145.

TCCCAGTAAGTTAAAGAGA came in with a TetR repression strength of 0.328.

The sequence TCCCGTCTAGTGCAGGAGA returned a TetR repression strength of 0.181.

Consider TCCCCCAAAGTTGAAGAGA, for which the TetR repression strength is 0.164.

Sequence TCCCCGCGAGTTGGAGAGA gave a TetR repression strength of 0.257.

TCCCTACCAGTGGGTGAGA yielded a TetR repression strength of 0.0969.

Consider TCCCTTTGAGTAGTTGAGA, for which the TetR repression strength turned out to be 0.193.

TCCCATGTAGTCAGAGAGA: the TetR repression strength was 0.225.

As to TCCCCTCCAGTTCTTGAGA, the TetR repression strength stood at 0.421.

The sequence TCCCGTTGAGTATTAGAGA gave a TetR repression strength of 0.0898.

Turning to TCCCTGGGAGTTACGGAGA, the TetR repression strength stood at 0.204.

Consider TCCCTTCAAGTCCTTGAGA, for which the TetR repression strength came to 0.32.

For the sequence TCCCGTTGAGTCTCAGAGA, the TetR repression strength worked out at 0.284.

As to TCCCTTCCAGTAACCGAGA, the TetR repression strength was found to be 0.352.

In turn, TCCCTTTTAGTGGGAGAGA yielded a TetR repression strength of 0.112.

TCCCCAGCAGTGGGCGAGA registered a TetR repression strength of 0.125.

In turn, TCCCGTCAAGTATGGGAGA registered a TetR repression strength of 0.415.

Sequence TCCCTAACAGTGTGTGAGA yielded a TetR repression strength of 0.206.

For the sequence TCCCGGGCAGTCCTCGAGA, the TetR repression strength stood at 0.909.

With TCCCTTCTAGTCATCGAGA, the TetR repression strength was determined as 0.444.

Regarding TCCCGCAGAGTAGGGGAGA, the TetR repression strength was 0.254.

Sequence TCCCAAATAGTGTTGGAGA gave a TetR repression strength of 0.248.

Turning to TCCCATGAAGTGTGGGAGA, the TetR repression strength was found to be 0.236.

With TCCCAGTGAGTGACTGAGA, the TetR repression strength was found to be 0.181.

Regarding TCCCTCGCAGTGGACGAGA, the TetR repression strength is 0.14.

TCCCTATCAGTCCCAGAGA returned a TetR repression strength of 1.18.

TCCCGATGAGTTGAAGAGA gave a TetR repression strength of 0.225.

In the case of TCCCTAGAAGTCCTAGAGA, the TetR repression strength worked out at 0.0793.

TCCCGGGCAGTTTCTGAGA yielded a TetR repression strength of 0.0699.

In turn, TCCCCATAAGTCGCGGAGA registered a TetR repression strength of 0.0596.

In turn, TCCCTCTAAGTTGAGGAGA displayed a TetR repression strength of 0.0793.

The sequence TCCCCAGGAGTAGTAGAGA displayed a TetR repression strength of 0.272.

With TCCCTATCAGTCCATGAGA, the TetR repression strength is 0.348.

In turn, TCCCAGTGAGTGGTGGAGA had a TetR repression strength of 0.172.

Consider TCCCATGAAGTTTTAGAGA, for which the TetR repression strength amounted to 0.156.

Regarding TCCCATAAAGTGGGGGAGA, the TetR repression strength came to 0.152.

Sequence TCCCGCATAGTCTGGGAGA came in with a TetR repression strength of 0.0977.

Sequence TCCCCCACAGTGAGCGAGA showed a TetR repression strength of 0.408.

Turning to TCCCGTAGAGTGTAGGAGA, the TetR repression strength came to 0.251.

With TCCCCTTGAGTGTAAGAGA, the TetR repression strength stood at 0.558.

Sequence TCCCTGAAAGTGGGAGAGA yielded a TetR repression strength of 0.368.

TCCCGGGGAGTAGAGGAGA yielded a TetR repression strength of 0.249.

Consider TCCCAAACAGTTTCCGAGA, for which the TetR repression strength stood at 0.477.

TCCCTGCCAGTACTTGAGA showed a TetR repression strength of 0.0401.

As for TCCCTTACAGTTTCGGAGA, the TetR repression strength turned out to be 0.0478.

Consider TCCCAACAAGTAGTCGAGA, for which the TetR repression strength stood at 0.154.

As for TCCCGAATAGTCTCAGAGA, the TetR repression strength amounted to 0.185.

TCCCCAGGAGTGTGGGAGA gave a TetR repression strength of 0.201.

Sequence TCCCAGAAAGTCTAGGAGA came in with a TetR repression strength of 0.157.

Turning to TCCCTTACAGTAACGGAGA, the TetR repression strength worked out at 0.

TCCCCAACAGTTAGGGAGA: the TetR repression strength was found to be 0.218.

The sequence TCCCGGAGAGTGATTGAGA displayed a TetR repression strength of 0.272.

Sequence TCCCAGCCAGTAGTGGAGA displayed a TetR repression strength of 0.307.

TCCCTTGGAGTGAAGGAGA displayed a TetR repression strength of 0.194.

Turning to TCCCGGATAGTGATAGAGA, the TetR repression strength was found to be 0.29.

Take TCCCGTTCAGTAGAGGAGA: the TetR repression strength is 0.219.

In the case of TCCCAACGAGTTTAAGAGA, the TetR repression strength was 0.344.

In the case of TCCCGGGGAGTGCTCGAGA, the TetR repression strength is 0.207.

The sequence TCCCAGCAAGTGGTGGAGA gave a TetR repression strength of 0.241.

Sequence TCCCTTTGAGTTCCGGAGA displayed a TetR repression strength of 0.098.

The sequence TCCCCATTAGTCTCGGAGA gave a TetR repression strength of 0.192.

TCCCGAATAGTGTTTGAGA came in with a TetR repression strength of 0.154.

On to TCCCTGAAAGTCCGGGAGA, for which the TetR repression strength was determined as 0.122.

TCCCTTATAGTTGCAGAGA: the TetR repression strength came to 0.262.

Sequence TCCCATTGAGTGGACGAGA yielded a TetR repression strength of 0.169.

TCCCCGCAAGTTGTGGAGA had a TetR repression strength of 0.166.

TCCCAAGAAGTTTTCGAGA: the TetR repression strength was 0.261.

Regarding TCCCAATTAGTGTCGGAGA, the TetR repression strength is 0.0518.

With TCCCTATTAGTCCGTGAGA, the TetR repression strength turned out to be 0.399.

On to TCCCTTGTAGTGCGGGAGA, for which the TetR repression strength worked out at 0.132.

Regarding TCCCCTATAGTTTGCGAGA, the TetR repression strength is 0.0173.

Consider TCCCCTTCAGTTCGCGAGA, for which the TetR repression strength turned out to be 0.191.

Sequence TCCCAGCTAGTTTTTGAGA showed a TetR repression strength of 0.603.

Turning to TCCCCGAGAGTCACGGAGA, the TetR repression strength stood at 0.12.

Turning to TCCCTTGGAGTACGAGAGA, the TetR repression strength is 0.295.

Regarding TCCCGAGTAGTGCGTGAGA, the TetR repression strength was found to be 0.0897.

For the sequence TCCCGGATAGTTGGGGAGA, the TetR repression strength was determined as 0.178.

In turn, TCCCTTTCAGTGAGGGAGA came in with a TetR repression strength of 0.221.

Regarding TCCCAATGAGTGGTCGAGA, the TetR repression strength amounted to 0.163.

In the case of TCCCAAAGAGTGTTTGAGA, the TetR repression strength was 0.108.

For TCCCTGCTAGTGATCGAGA, the TetR repression strength was found to be 0.745.

TCCCCGACAGTGGGTGAGA: the TetR repression strength was determined as 0.152.

For TCCCCACTAGTGTGCGAGA, the TetR repression strength stood at 0.218.

The sequence TCCCGCAGAGTTGTAGAGA showed a TetR repression strength of 0.53.

In turn, TCCCCACCAGTTGTAGAGA gave a TetR repression strength of 0.265.

As for TCCCCTCGAGTTAAGGAGA, the TetR repression strength is 0.155.

TCCCTTAGAGTGTCCGAGA came in with a TetR repression strength of 0.339.

The sequence TCCCATGTAGTATGAGAGA came in with a TetR repression strength of 0.27.

With TCCCCGATAGTTCGAGAGA, the TetR repression strength is 0.104.

Sequence TCCCTTATAGTTTGAGAGA had a TetR repression strength of 0.198.

Sequence TCCCCTTCAGTCAACGAGA registered a TetR repression strength of 0.389.

TCCCAGCAAGTGTCAGAGA yielded a TetR repression strength of 0.205.

With TCCCCGGAAGTTGGGGAGA, the TetR repression strength was 0.216.

TCCCAACTAGTCATAGAGA returned a TetR repression strength of 0.397.

In turn, TCCCGGATAGTCGGCGAGA returned a TetR repression strength of 0.211.

TCCCCCGGAGTGCTGGAGA had a TetR repression strength of 0.227.

Regarding TCCCGGATAGTCCTCGAGA, the TetR repression strength worked out at 0.415.

For TCCCTCTTAGTGGTGGAGA, the TetR repression strength came out at 0.196.

On to TCCCGTTCAGTTAAGGAGA, for which the TetR repression strength amounted to 0.297.

In turn, TCCCAGTGAGTCTGTGAGA returned a TetR repression strength of 0.481.

TCCCCAGGAGTACATGAGA had a TetR repression strength of 0.129.

Sequence TCCCCATTAGTTGTGGAGA yielded a TetR repression strength of 0.151.

The sequence TCCCTTCGAGTGCGCGAGA gave a TetR repression strength of 0.281.

Regarding TCCCCCGAAGTAGTTGAGA, the TetR repression strength came to 0.102.

Regarding TCCCGGCGAGTGCTAGAGA, the TetR repression strength came out at 0.196.

Sequence TCCCTGTTAGTATGGGAGA gave a TetR repression strength of 0.179.

TCCCGCCTAGTCAAGGAGA came in with a TetR repression strength of 0.509.

Sequence TCCCTAGCAGTTCCTGAGA showed a TetR repression strength of 0.431.

As to TCCCGTCAAGTTCCGGAGA, the TetR repression strength was determined as 0.121.

As for TCCCTTAAAGTTTGCGAGA, the TetR repression strength is 0.622.

With TCCCATTCAGTATAAGAGA, the TetR repression strength turned out to be 0.348.

Turning to TCCCTATAAGTCTCGGAGA, the TetR repression strength worked out at 0.365.

With TCCCCGATAGTTGCAGAGA, the TetR repression strength worked out at 0.118.

Sequence TCCCAGAAAGTTGAGGAGA showed a TetR repression strength of 0.29.

With TCCCGGAAAGTGTTGGAGA, the TetR repression strength amounted to 0.33.

As for TCCCGCTGAGTGTCGGAGA, the TetR repression strength is 0.246.

As for TCCCCTAAAGTACAGGAGA, the TetR repression strength came to 0.0737.

The sequence TCCCAGGAAGTCGTTGAGA had a TetR repression strength of 0.

Turning to TCCCGGTGAGTGGTTGAGA, the TetR repression strength turned out to be 0.231.

In the case of TCCCATCCAGTGCCAGAGA, the TetR repression strength is 0.637.
